The labels stand for the following.
B1: CPEB3 Ribozyme (parent)
chain: UAACAGGGGGCCACAGCAGAAGCGUUCACGUCGCAGCCCCUGUCAGAUUCUGGUGAAUCUGCGAAUUCUGCUGUAUAUCUC

The source gives no read counts; variants with many changes may rest on few reads.

The variants in the series derive from B1. Put plainly: self-cleavage, relative activity (ratio to wild type); higher = more cleavage; in vitro, sequencing. An outline of the steps:
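For each CPEB3 ribozyme variant, relative activity is its cleaved/total read fraction divided by the unmutated ribozyme's. Barcoded error-prone PCR libraries were transcribed by T7 RNA polymerase (5 hours, 37°C) and held in DNase I for 15 min before an EDTA stop, with cleavage occurring throughout. Template-switching reverse transcription and Illumina sequencing were used to read the RNAs. A 5-read minimum applied, and results are the mean of three batches.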
A2G G52U U54C U69C A77U: the self-cleavage stood at 0.38.
Regarding A2G U54C A56U U80C, the self-cleavage worked out at 0.17.
The value for A3C A5G A28G G46A U54G G55U was 0.03; that for A2U U41A U51A was 0.73.
A3G A13G A20G U51C U60A: the self-cleavage stood at 0.51.
With A3G A13G U26A A65G, the self-cleavage turned out to be 0.48.
Regarding A3G A5G C32G U43A A56G, the self-cleavage was determined as 0.07.
The figure for A3G A5U U31C U49C U60C G70U is 0.11.
In the case of A2U A18G A64U U69C, the self-cleavage is 0.24.
The value for A2G G8A A45C A56G was 0.41; that for A2G G8U U25C U31C C34G U80C was 0.44; that for A2U A20U U54C U72C U80C was 0.21.
Consider A2G C11G U26A U72A U76C, for which the self-cleavage is 0.08.
Take A2G G33A C68U U78A: the self-cleavage was determined as 0.09.
Turning to A2U U54C U58A, the self-cleavage is 0.31.
The figure for A2G C4U A35U U60C is 0.21; for A3G A13G A15G it is 0.7.
In the case of A2G A64U U66C U78A, the self-cleavage was 0.21.
With A3C U41A A47G G52A U60C, the self-cleavage was found to be 0.1.
Turning to A2G A45U A65G C71G C79A U80C, the self-cleavage turned out to be 0.1.
In the case of A3G A13G U48A G63A U78C, the self-cleavage amounted to 0.18.
As for A2U A45U U60A, the self-cleavage came to 1.13.
For the variant A2G U25C U67C U76C, the self-cleavage worked out at 0.29.
Regarding A2U G16U U41C G63A, the self-cleavage amounted to 0.54.
The value for A2G A56G U67C was 0.11.
As to A2U A45U U49C A64G, the self-cleavage turned out to be 0.28.
Regarding A2G U25C A35U A64G, the self-cleavage came to 0.24.
Take A3G A5C U60C: the self-cleavage turned out to be 0.35.
On to A3G A5G A18G U54C, for which the self-cleavage came out at 0.31.
As for A2G A28G C37U A56G A57G U72C, the self-cleavage was 0.16.
With A2G U43C A64G, the self-cleavage was 0.48.
A3G A13U G24A U25C A65C: the self-cleavage is 0.09.
As to A2U A21G G24A A35G U72A, the self-cleavage is 0.1.
A2G A64U C71A U74A: the self-cleavage amounted to 0.13.
As to A2G A28G U69C, the self-cleavage was 0.38.
For A2U A35G U54G, the self-cleavage amounted to 1.2.
Regarding A3G A5U G9U U69A C81G, the self-cleavage was found to be 0.48.
As for A2G G6A A13C C17U U25C, the self-cleavage turned out to be 0.09.
Take A2U U54C A64G U69C G70A: the self-cleavage came to 0.16.
As to A3G A13G A35U U48C U54G A65G, the self-cleavage was 0.14.
As for A3G A5G A57U, the self-cleavage was 0.62.
The figure for A3G A15G A20U A35G U74A is 0.79; for A2U A35U A75G it is 0.42.
For the variant A2G C17U U41G U78C, the self-cleavage is 0.09.
As for A3C G36U U51G U54G U69A, the self-cleavage was determined as 0.11.
As for A2G G33A U41G U78C, the self-cleavage was 0.22.
Turning to A3G A13U C50A, the self-cleavage was determined as 0.65.
On to A3G A13G G19C A28G C29U C38U C40A, for which the self-cleavage stood at 0.07.
Regarding A3G A5G A21U U31C A57G, the self-cleavage came out at 0.1.
Turning to A2U U25A G30A U49C A56G, the self-cleavage was found to be 0.28.
On to A2G A21U U51C A56G, for which the self-cleavage stood at 0.52.
A3G A13G A21G A35G C40A U67C: the self-cleavage came out at 0.18.
As to A3C G8A U25C U67C U74C, the self-cleavage stood at 0.3.
As for A3G A15G A56U, the self-cleavage worked out at 0.57.
The value for A2G G42U A75U was 0.57; that for A2G C12U G36A C37A U41A U54C was 0.21.
Turning to A3G A15G U49C A64U, the self-cleavage turned out to be 0.64.
As to A2G A28G U78C, the self-cleavage was found to be 0.49.
With A2G C11U C12U U54C A56G A64G, the self-cleavage was 0.06.
The figure for A2U C11G C17A C62G is 0.2.
The value for A2U U25A U60C U67A was 0.06; that for A2U G22A C39U A57G U69A C81U was 0.11.
Take A3G A15G G30U C50A A57C: the self-cleavage was found to be 0.15.
The figure for A3C A13G A20U G33A G36A U43C is 0.24.
For the variant A2G C11G A18G U25C U76A U80C, the self-cleavage amounted to 0.07.
The value for A3G A5G U25C U66G was 0.19.
The figure for A2U A3G U25C U31C U60A is 0.33; for A2U A3G A15U A21G A35G U67C it is 0.12.
As for A2G C4U U25A A47G U51A U60C A77G, the self-cleavage amounted to 0.09.
For the variant A2G U31C U41C A45U U66C, the self-cleavage was 0.23.
For the variant A3G A13G A21C G46U U80G, the self-cleavage was 0.44.
With A2G G9C C71U, the self-cleavage came out at 0.08.
For A2G A28U C32A U51A C71U, the self-cleavage was determined as 0.19.
In the case of A3C A5U U78C, the self-cleavage stood at 1.03.
For A2U A5U U80A, the self-cleavage came out at 0.74.
For the variant A2G U26C A35G U43C A56G, the self-cleavage amounted to 1.02.
Consider A3G A15G A28G U31A A65G U72A U80A, for which the self-cleavage turned out to be 0.1.
With A3G A15G A47U A64G, the self-cleavage is 0.39.
Regarding A3C A5G A28G G55U, the self-cleavage worked out at 0.69.
In the case of A3G A5U A35G, the self-cleavage amounted to 1.18.
With A2G U31C G46U U54C, the self-cleavage was found to be 0.22.
The value for A3C U60C A64G was 0.68; that for A2G A65G U74C was 0.31.
As to A3G A5G U66C, the self-cleavage was determined as 0.44.
The figure for A2G U49C U54C U66C U80A is 0.06.
As for A3G A5U U31C A65U A75U, the self-cleavage was found to be 0.29.
A2G U43C U67C: the self-cleavage was determined as 0.19.
Take A2G G6A A13G A21G C29U C40U U78C: the self-cleavage came out at 0.06.
For the variant A2U U25C A47U U51C U80C, the self-cleavage is 0.11.
As to A3G A13U U69C, the self-cleavage worked out at 0.6.
A2U U25C U26C U48C C62A U80A: the self-cleavage is 0.23.
For the variant A2U U26C U54C U60A U69A, the self-cleavage turned out to be 0.13.
Regarding A2U A3G G7U U41G, the self-cleavage was 0.08.
The value for A3G A5G A15G A45G A57G was 0.15; that for A2G U25A C38U A47U was 0.22.
For A2U G9A U41A U51A A56U C59U U69A, the self-cleavage was 0.04.
In the case of A2G A65G U76A U80A, the self-cleavage amounted to 0.25.
Turning to A2U A13G A18G U51A, the self-cleavage turned out to be 0.2.
Take A2U U25C U54C U69C U78C: the self-cleavage was 0.21.
Regarding A3G A13G U51C, the self-cleavage is 0.84.
In the case of A3G A13U C62U, the self-cleavage was found to be 0.37.
For the variant A2G C17U U26C U72C U78C, the self-cleavage was determined as 0.42.
The figure for A2U A28U A45U U54A C62U U76C A77G is 0.09; for A3C A21G G33A C71G it is 0.2; for A3G A5G A28G A56U U80C it is 0.06.
The figure for A2G U26A A28G U54C is 0.33.
Consider A3G A13G U25C C38G U66G, for which the self-cleavage worked out at 0.31.
The value for A3C G9U U41A A45U A56U G63A was 0.08.
As for A2G U25C A47G U72A, the self-cleavage is 0.07.
As for A2G C12U U72A, the self-cleavage came to 0.61.
On to A2U A35G G53A, for which the self-cleavage came to 1.23.
In the case of A2G G6U U60C U69C U78C, the self-cleavage was determined as 0.22.
Consider A2U U54G A57U G70A A77G, for which the self-cleavage is 0.3.
For A2G G46C A47G U66A C68A U72C, the self-cleavage came out at 0.16.
The value for A3G A13G G30A U49C U80C was 0.13; that for A3G A13U A21G A64G U69C was 0.18; that for A2G G46U U54C A56U U80C was 0.18.
A2U A5G U69C: the self-cleavage was 0.38.
As for A3C A5G A28C, the self-cleavage was 0.65.
Consider A2U C11U A45U A57G U76G, for which the self-cleavage worked out at 0.22.
The value for A2G A47G U54C A77G was 0.41; that for A3G A13G A77G was 0.85; that for A2G U26A G61C A65G was 0.14.
The value for A3G A5G U49C U51A A77G U78A was 0.14.
The value for A2G C12U U31A U66C U74C A75U U80C was 0.25.
As for A3C G7A A47U U60C, the self-cleavage worked out at 0.07.
The value for A3G A13U G22A was 0.41.
For A2G U25C C50A U58A, the self-cleavage stood at 0.19.
For the variant A2G A47C A56G U60C, the self-cleavage stood at 0.25.
Take A2U A28G C40G: the self-cleavage is 0.29.
The value for A3G A15G G19U U26C U43C was 0.25; that for A2G G7U A47U A56G U60A G70A was 0.04; that for A3G A15G A35U G52C U72A was 0.33.
As for A2U G8U U49C A57G U78C, the self-cleavage was 0.14.
With A3C U41C U43A U49C, the self-cleavage worked out at 0.44.
The value for A3G A5G G9A A13U U41C U80C was 0.88.
Regarding A2G U31C G36A A45U U48A A75G, the self-cleavage was 0.06.
As for A2G G36C U51A, the self-cleavage was determined as 0.26.
Consider A3G A15G U31C U51C U54C U67C, for which the self-cleavage was 0.62.
The figure for A2U A28U A35G A45G U51C A57G U74A is 0.82; for A2G U31C U74A it is 0.67.
As to A2U A15G A18C U25C U31A U49A, the self-cleavage amounted to 0.4.
As for A2U A18G G22C U41G U69C, the self-cleavage is 0.14.
Regarding A2G U43C U60A U72C, the self-cleavage was determined as 0.33.
In the case of A3C C40A U41A A47U C68A U74C, the self-cleavage worked out at 0.28.
The figure for A2G U26C U49A U69C U78A is 0.06; for A2G U25A A45U U51A U78C it is 0.25.
Turning to A2G A45U G63A C81U, the self-cleavage is 0.33.
On to A2G C37A U41A A56U, for which the self-cleavage was determined as 0.28.
The value for A3C A15U C62A was 0.08.
On to A2U A15U U25C U26C A45G U80C, for which the self-cleavage amounted to 0.35.
As for A3G A13G A18U G33A U78C, the self-cleavage was found to be 0.34.
In the case of A2U U31A U51A U69C, the self-cleavage is 0.14.
The value for A3G A5G A47G was 0.42.
The figure for A2U G8A A21G U80C is 0.43; for A3G A13G C14A A35U U60C U66A it is 0.11; for A3G A5G U31C C44U A56U it is 0.03.
As for A2G U67C U69G, the self-cleavage came out at 0.12.
A2G U43A A45G: the self-cleavage was 0.87.
In the case of A2U A47G U67A, the self-cleavage came to 0.22.
A2G U54A C79U: the self-cleavage stood at 1.
The value for A2G U25C U41C A45G U58C U67C was 0.17; that for A2U U41A G63A was 0.35.
The value for A2U A45G U51C U80G was 0.74; that for A2G U31C U78C was 0.61; that for A2G A28G A65G was 0.15.
A3G A5G U25C A28G U41C U80C: the self-cleavage came to 0.57.

Source of the values: the RNAGym collection of RNA variant scans (doi:10.1093/nar/gkz1192).
